According to PubChem BioAssay AID485344 (National Center for Advancing Translational Sciences (NCATS), 2010):
The whole screen tested about 340,000 compounds, of which about 6,900 (2%) were called active. Cut-off read from the data, not from the text of the source: active = inhibition above about 30%; inactive = below that, where a call was filed. The entries are a selection whose mix differs from that of the whole data set. Entries without a call were filed so in the source.

target: D(2) dopamine receptor (Homo sapiens) (UniProt P14416); assay: HTS Assay for Allosteric Antagonists of the Human D2 Dopamine Receptor: Primary Screen for Antagonists; conditions: HEK293 TREx D2 cells, calcium flux, dopamine EC80; at 10 µM; stronger effect = higher value; note: 0% is about no effect
UniProt P14416, sequence (P14416 whole entry, looked up): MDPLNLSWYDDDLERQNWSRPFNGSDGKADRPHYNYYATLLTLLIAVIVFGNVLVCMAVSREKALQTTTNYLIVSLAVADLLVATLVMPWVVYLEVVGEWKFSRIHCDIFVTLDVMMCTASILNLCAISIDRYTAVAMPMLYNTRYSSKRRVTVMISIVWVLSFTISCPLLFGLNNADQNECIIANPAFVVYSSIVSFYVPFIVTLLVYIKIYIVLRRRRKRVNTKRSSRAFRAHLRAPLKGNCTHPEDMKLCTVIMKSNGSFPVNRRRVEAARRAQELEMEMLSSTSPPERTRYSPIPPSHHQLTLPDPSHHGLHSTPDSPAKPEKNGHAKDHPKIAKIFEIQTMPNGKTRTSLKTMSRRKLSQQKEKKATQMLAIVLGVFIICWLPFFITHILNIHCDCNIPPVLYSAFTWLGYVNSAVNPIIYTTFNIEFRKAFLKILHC
In short: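 In this primary screen, negative modulation is detected by tracking calcium flux after an EC80 dopamine challenge in inducible HEK293 T-REx D2 cells preexposed to test compound for 180 s.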

| SMILES | inhibition |
| --- | --- |
| COc1cc([N+](=O)[O-])ccc1NC(=O)N1CCC2(CC1)Nc1ccccc1-n1cccc12 | 6.86% |
| COc1ccc2cc3cc(C(=O)N4CCN(c5cccc(C(F)(F)F)c5)CC4)sc3nc2c1 | -9.11% |
| COc1ccc(-c2nc3sc(CCNC(=O)C(=O)Nc4cc(F)ccc4F)c(C)n3n2)cc1 | 27.6% |
| Cn1c(=O)n(C)c2cc(N3CCOCC3)c(NC(=O)c3ccc(C(C)(C)C)cc3)cc21 | -13% |
| Nc1ncnc(Nc2ccccn2)c1[N+](=O)[O-] | active: 30.9% |
| CCOCCCn1c(SCC(=O)NCc2ccccc2)nc2c(sc3ccccc32)c1=O | 5.26% |
| COc1cccc(NC(=O)Nc2ccc3snnc3c2)c1 | -3.67% |
| CC(C)CCNC(=O)c1cc(-c2ccc(Br)s2)nc2ccccc12 | 15.4% |
| COc1ccc(-c2cc(C)no2)cc1S(=O)(=O)N1CCCC(C)C1 (stereo unspecified) | -1.29% |
| Cc1cccc(NC(=O)c2ccc3[nH]c(C)cc(=O)c3c2)c1 | 3.45% |
| Cn1c(=O)[nH]c(=O)c2c1nc(CN1CCN(c3ccccc3)CC1)n2Cc1c(F)cccc1Cl | -12.3% |
| COc1cc(C2=NOC(C(=O)Nc3ccc(C)cc3)C2)cc(OC)c1OC (stereo unspecified) | active: 57.1% |
| CCC(=O)N1CCc2cc(S(=O)(=O)NC(Cc3ccccc3)C(=O)NCc3ccccc3OC)ccc21 (stereo unspecified) | -24.8% |
| CC(C)(C)c1ccc(C(=O)Nc2ccc(NC(=O)c3ccc(Cl)c(Cl)c3)cc2)cc1 | 7.98% |
| COc1cc(NC(=O)C(CC(C)C)N2Cc3ccccc3C2=O)cc(OC)c1 (stereo unspecified) | -14.7% |
| CCOc1ccc(NC(=O)CSc2nc3ccsc3c(=O)n2CC)cc1 | -7.65% |
| CCN(CC)C(=O)c1ccc2c(c1)N(Cc1ccccc1F)C(=O)c1ccccc1S2=O (stereo unspecified) | -2.63% |
| Cc1ccc(NC(=O)Cn2c(=O)nc(-c3ccccc3)c3ccccc32)cc1 | 4.91% |
| CCCCNC(=O)CCn1nc(-c2ccc(Cl)cc2)c2ccccc2c1=O | -5.21% |
| CCCCOc1ccc(CNC(=O)c2cnc3sc(N4CCCCCC4)nn3c2=O)cc1 | 0.486% |
| Cc1cccc(C(=O)n2nc(-c3cccnc3)nc2NCc2ccc(F)cc2)c1 | -4.14% |

| SMILES | inhibition |
| --- | --- |
| CCC(Oc1ccccc1)C(=O)Nc1cc(-c2ccccc2F)nn1-c1ccccc1 (stereo unspecified) | -12.7% |
| CCN(CC)S(=O)(=O)c1ccc2c(c1)N(CC(=O)NCCc1ccccc1)C(=O)CO2 | 6.8% |
| CCN1CCN(c2nc3c(S(=O)(=O)c4ccc(C)cc4)nnn3c3ccsc23)CC1 | -9.73% |
| CCc1ccc2oc(-c3cccc(NC(=O)COc4ccccc4Cl)c3)nc2c1 | -11.4% |
| CCOc1ccc2nc(N3CCCC(C(=O)Nc4ccc(CC)cc4)C3)sc2c1 (stereo unspecified) | 0.156% |
| COc1cc(OC)c(NC(=O)CC(C)S(=O)(=O)c2ccc3c(c2)NC(=O)CO3)cc1Cl (stereo unspecified) | -0.414% |
| COc1ccc(S(=O)(=O)NCCc2csc(-c3cccc(F)c3)n2)cc1OC | 1.94% |
| CCn1cc(S(=O)(=O)c2ccc(OC)cc2)c(=O)c2cc(F)c(N3CCCCCC3)cc21 | -0.0562% |
| COc1ccc(-c2nn(-c3ccc(C)c(Cl)c3)c3c2cnc2cc(OC)c(OC)cc23)cc1 | -12.4% |
| Nc1nc(Nc2cccc(Cl)c2)sc1C(=O)c1ccc(F)cc1 | -13.3% |
| CCOc1ccc(/C=C/C(=O)Nc2sc3c(c2C(=O)OC)CCCC3)cc1 | 11.2% |
| CCC1CN(C(=O)NCc2ccc(F)cc2)c2cc(Cl)ccc2O1 (stereo unspecified) | -11.4% |
| COc1ccc(C2CC(=O)c3cc(-c4nc(-c5ccc(C)cc5)cs4)c(=O)[nH]c3C2)cc1 (stereo unspecified) | -17.9% |
| CCOC(=O)c1c(C)[nH]c(C)c1S(=O)(=O)N(C)CC(=O)NCc1ccc(C)cc1 | 9.77% |
| CCOc1cccc(CNC(=O)c2ccc(N3CCCC3)c(NC(=O)Nc3ccccc3CC)c2)c1 | -1.2% |
| Cc1cccc(OCC(O)Cn2c(=N)n(CCN3CCOCC3)c3ccccc32)c1 (stereo unspecified) | active: 31.7% |
| COc1ccc(NC(=O)C2CCCN(S(=O)(=O)c3c(C)[nH]c(=O)[nH]c3=O)C2)cc1 (stereo unspecified) | -2.24% |
| CCCCOc1ccc(CNC(=O)CN2C(=O)CCn3nc(-c4cn(C)c5ccccc45)cc32)cc1 | 3.08% |
| O=C(COc1cccc2cccnc12)Nc1ccccc1N1CCOCC1 | active: 30.2% |
| CCCCOc1ccc(Cl)cc1CSc1nnc(CC)n1N | active: 35.5% |
| CCc1nn(CC(=O)NCCc2ccc(OC)c(OC)c2)c(=O)c2cc3occc3n12 | -5.45% |

| SMILES | inhibition |
| --- | --- |
| CCOC(=O)c1ccc(NC(=O)CSc2nc(-c3ccc(F)cc3)cc(C(F)(F)F)c2C#N)cc1 | -16.4% |
| Cc1ccc(NC(=O)Nc2c(C)n(C)n(-c3ccccc3)c2=O)c(Cl)c1 | -0.138% |
| COc1ccccc1NC(=O)c1ccc(-c2nc(COc3ccc(C)cc3)c(C)o2)cc1 | 5.45% |
| CCOc1ccc(NC(=O)C2=C(C)C(=O)OC23CCC(C)CC3)cc1 (stereo unspecified) | 17.3% |
| O=C(CSc1ncc2c(n1)-c1cc(Cl)ccc1N(Cc1ccccc1)S2(=O)=O)NCCc1ccccc1 | 2.42% |
| CS(=O)(=O)Nc1ccc(-c2nc3ccccc3s2)cc1 | -10.8% |
| COc1ccc(NC(=O)c2cccn2-c2nnc(N3CCCCC3)s2)c(OC)c1 | 7.45% |
| COC(=O)c1ccc(C)c(NC(=O)Cn2cnc3ccccc3c2=O)c1 | active: 35.4% |
| CCOC(=O)COc1cc(C)c(Cl)cc1C(=O)c1ccn2nc(-c3ccc(OC)cc3)cc2n1 | -6.09% |
| Cc1ccc(NS(=O)(=O)c2ccc3c(c2)CCN3C(=O)C2CC2)c(C)c1 | 24.1% |
| Cc1ccc(NC(=O)c2ccc3c(O)c(S(=O)(=O)c4ccc(Cl)cc4)c(=O)[nH]c3c2)cc1 | -1.93% |
| CCOC(=O)C1CCCN(C(=O)Cn2ncc3c(C)n(Cc4ccc(Cl)cc4)c(C)c3c2=O)C1 (stereo unspecified) | 9.11% |
| CC1=C(C#N)C(NC(=O)c2ccccc2)(C(F)(F)F)C(=O)N1 (stereo unspecified) | -3.6% |
| Cc1ccc(S(=O)(=O)c2nc(-c3cccs3)oc2SCc2ccc(F)cc2)cc1 | 9.66% |
| CC(C)c1ccccc1NC(=O)C(Cc1c[nH]c2ccccc12)NC(=O)OC(C)(C)C (stereo unspecified) | 3.21% |
| Cc1cccc(N2CCN(C(=O)Cn3c(C)c4cnn(-c5ccccc5)c(=O)c4c3C)CC2)c1C | 18.1% |
| CCCCn1c(SCc2ccccc2C)nc2ccsc2c1=O | 10.7% |
| COc1ccc(CNC(=O)C(=O)NCC(c2ccco2)S(=O)(=O)c2cccs2)cc1 (stereo unspecified) | 12.6% |
| Cc1nnc(SCc2cc(=O)c3cc(F)ccc3[nH]2)n1C | -10.5% |
